The other results are listed elsewhere or left out.
Legend:
Experiment in all cases: glycan array binding signal (z-score within array); higher = stronger binding
Details in all cases: glycan notation: IUPAC condensed, linker removed
[1] = biological target: GlcNAc(b1-3)Gal(b1-4)GlcNAc
How it was run: (§1)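 Glycan array binding is given as a within-array Z-score, which can be read as non-binding when negative. The arrays, 3228 of them, came from the Consortium for Functional Glycomics database and were retained only where the protein sequence was available. Z-scores were averaged across arrays of the same protein sequence at different concentrations or buffers and across linkers.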

[2] = biological target: GlcNAc(b1-3)Gal(b1-4)GlcNAc(b1-3)Gal(b1-4)GlcNAc
How it was run: as §1

GlcNAc(b1-3)GalNAc = biological target: GlcNAc(b1-3)GalNAc
How it was run: as §1

[3] = biological target: GlcNAc(b1-3)[GlcNAc(b1-6)]Gal(b1-4)GlcNAc
How it was run: as §1

[4] = biological target: GlcNAc(b1-3)[GlcNAc(b1-6)]GalNAc
How it was run: as §1

[5] = biological target: GlcNAc(b1-3)[GlcNAc(b1-6)]GlcNAc(b1-4)GlcNAc
How it was run: as §1

[6] = biological target: GlcNAc(b1-4)Gal(b1-4)GlcNAc
How it was run: as §1

[7] = biological target: GlcNAc(b1-4)GlcNAc(b1-4)GlcNAc
How it was run: as §1

[8] = biological target: GlcNAc(b1-4)GlcNAc(b1-4)GlcNAc(b1-4)GlcNAc(b1-4)GlcNAc
How it was run: as §1

[9] = biological target: GlcNAc(b1-4)GlcNAc(b1-4)GlcNAc(b1-4)GlcNAc(b1-4)GlcNAc(b1-4)GlcNAc
How it was run: as §1

[10] = biological target: GlcNAc(b1-4)[GlcNAc(b1-6)]GalNAc
How it was run: as §1

[11] = biological target: GlcNAc(b1-6)Gal(b1-4)GlcNAc
How it was run: as §1

GlcNAc(b1-6)GalNAc = biological target: GlcNAc(b1-6)GalNAc
How it was run: as §1

Kdn(a2-3)Gal(b1-3)GlcNAc = biological target: Kdn(a2-3)Gal(b1-3)GlcNAc
How it was run: as §1

Kdn(a2-3)Gal(b1-4)GlcNAc = biological target: Kdn(a2-3)Gal(b1-4)GlcNAc
How it was run: as §1

[12] = biological target: Man(a1-2)Man(a1-2)Man(a1-3)Man
How it was run: as §1

[13] = biological target: Man(a1-2)Man(a1-2)Man(a1-6)[Man(a1-3)]Man
How it was run: as §1

Man(a1-2)Man(a1-3)Man = biological target: Man(a1-2)Man(a1-3)Man
How it was run: as §1

[14] = biological target: Man(a1-2)Man(a1-3)[Man(a1-2)Man(a1-6)]Man
How it was run: as §1

[15] = biological target: Man(a1-2)Man(a1-3)[Man(a1-2)Man(a1-6)]Man(a1-6)[Man(a1-2)Man(a1-2)Man(a1-3)]Man(b1-4)GlcNAc(b1-4)GlcNAc
How it was run: as §1

[16] = biological target: Man(a1-2)Man(a1-3)[Man(a1-6)]Man(a1-6)[Man(a1-2)Man(a1-3)]Man(b1-4)GlcNAc(b1-4)GlcNAc
How it was run: as §1

[17] = biological target: Man(a1-2)Man(a1-6)[Man(a1-3)]Man(a1-6)[Man(a1-2)Man(a1-2)Man(a1-3)]Man(b1-4)GlcNAc(b1-4)GlcNAc
How it was run: as §1

Man(a1-3)[Man(a1-6)]Man = biological target: Man(a1-3)[Man(a1-6)]Man
How it was run: as §1

[18] = biological target: Man(a1-3)[Man(a1-6)]Man(a1-6)[Man(a1-2)Man(a1-3)]Man(b1-4)GlcNAc(b1-4)GlcNAc
How it was run: as §1

[19] = biological target: Man(a1-3)[Man(a1-6)]Man(a1-6)[Man(a1-3)]Man(b1-4)GlcNAc(b1-4)GlcNAc
How it was run: as §1

[20] = biological target: Man(a1-3)[Man(a1-6)]Man(b1-4)GlcNAc(b1-4)GlcNAc
How it was run: as §1

Man(b1-4)GlcNAc = biological target: Man(b1-4)GlcNAc
How it was run: as §1

Neu5Ac(a2-3)Gal = biological target: Neu5Ac(a2-3)Gal
How it was run: as §1

[21] = biological target: Neu5Ac(a2-3)Gal(b1-3)GalNAc
How it was run: as §1

[22] = biological target: Neu5Ac(a2-3)Gal(b1-3)GalNAc(b1-3)Gal(a1-4)Gal(b1-4)Glc
How it was run: as §1

[23] = biological target: Neu5Ac(a2-3)Gal(b1-3)GalNAc(b1-3)Gal(b1-4)GlcNAc
How it was run: as §1

[24] = biological target: Neu5Ac(a2-3)Gal(b1-3)GalNAc(b1-4)[Neu5Ac(a2-3)]Gal(b1-4)Glc
How it was run: as §1

[25] = biological target: Neu5Ac(a2-3)Gal(b1-3)GalNAc6S
How it was run: as §1

[26] = biological target: Neu5Ac(a2-3)Gal(b1-3)GlcNAc
How it was run: as §1

[27] = biological target: Neu5Ac(a2-3)Gal(b1-3)GlcNAc6S
How it was run: as §1

[28] = biological target: Neu5Ac(a2-3)Gal(b1-3)[Fuc(a1-4)]GlcNAc
How it was run: as §1

[29] = biological target: Neu5Ac(a2-3)Gal(b1-3)[Fuc(a1-4)]GlcNAc(b1-3)Gal(b1-4)[Fuc(a1-3)]GlcNAc
How it was run: as §1

[30] = biological target: Neu5Ac(a2-3)Gal(b1-3)[Neu5Ac(a2-3)Gal(b1-4)]GlcNAc
How it was run: as §1

[31] = biological target: Neu5Ac(a2-3)Gal(b1-3)[Neu5Ac(a2-6)]GalNAc
How it was run: as §1

Neu5Ac(a2-3)Gal(b1-4)Glc = biological target: Neu5Ac(a2-3)Gal(b1-4)Glc
How it was run: as §1

[32] = biological target: Neu5Ac(a2-3)Gal(b1-4)GlcNAc
How it was run: as §1

B1: LKITALY (Gibberella zeae) (protein)
chain: MGNFHESSNNIWLEDGHILHAECGNGEGDYVESTLDLDYYIGNDDGSFSWGGENFSGSASNITLDIEGDDNIPVLRAELNPMDGDPVEANVNLSERIGNDCGTLIFLA
Q: For B1, which “glycan array binding signal (z-score)” value [1] is on record?
A: The value was -0.351.

Q: And the “glycan array binding signal (z-score)” value [2]?
A: The value was -0.352.

Q: What about the “glycan array binding signal (z-score)” value (GlcNAc(b1-3)GalNAc) of the same binder?
A: The value was -0.355.

Q: What about the “glycan array binding signal (z-score)” value [3] of the same binder?
A: The value was -0.355.

Q: And the “glycan array binding signal (z-score)” value [4]?
A: Its value is -0.348.

Q: What about the “glycan array binding signal (z-score)” value [5] of the same binder?
A: The value was -0.353.

Q: And the “glycan array binding signal (z-score)” value [6]?
A: The value was -0.359.

Q: What about the “glycan array binding signal (z-score)” value [7] of the same binder?
A: Its value is -0.36.

Q: And the “glycan array binding signal (z-score)” value [8]?
A: Its value is -0.354.

Q: What about the “glycan array binding signal (z-score)” value [9] of the same binder?
A: The value was -0.355.

Q: And the “glycan array binding signal (z-score)” value [10]?
A: Its value is -0.356.

Q: What about the “glycan array binding signal (z-score)” value [11] of the same binder?
A: Its value is -0.353.

Q: And the “glycan array binding signal (z-score)” value (GlcNAc(b1-6)GalNAc)?
A: The value was -0.355.

Q: And the “glycan array binding signal (z-score)” value (Kdn(a2-3)Gal(b1-3)GlcNAc)?
A: Its value is -0.357.

Q: And the “glycan array binding signal (z-score)” value (Kdn(a2-3)Gal(b1-4)GlcNAc)?
A: The value was 3.13.

Q: What about the “glycan array binding signal (z-score)” value [12] of the same binder?
A: The value was -0.345.

Q: What about the “glycan array binding signal (z-score)” value [13] of the same binder?
A: Its value is -0.344.

Q: What about the “glycan array binding signal (z-score)” value (Man(a1-2)Man(a1-3)Man) of the same binder?
A: Its value is -0.355.

Q: What about the “glycan array binding signal (z-score)” value [14] of the same binder?
A: The value was -0.35.

Q: And the “glycan array binding signal (z-score)” value [15]?
A: Its value is -0.356.

Q: What about the “glycan array binding signal (z-score)” value [16] of the same binder?
A: Its value is -0.362.

Q: And the “glycan array binding signal (z-score)” value [17]?
A: The value was -0.36.

Q: What about the “glycan array binding signal (z-score)” value (Man(a1-3)[Man(a1-6)]Man) of the same binder?
A: Its value is -0.342.

Q: What about the “glycan array binding signal (z-score)” value [18] of the same binder?
A: The value was -0.318.

Q: And the “glycan array binding signal (z-score)” value [19]?
A: Its value is -0.347.

Q: And the “glycan array binding signal (z-score)” value [20]?
A: The value was 0.382.

Q: What about the “glycan array binding signal (z-score)” value (Man(b1-4)GlcNAc) of the same binder?
A: Its value is -0.337.

Q: And the “glycan array binding signal (z-score)” value (Neu5Ac(a2-3)Gal)?
A: The value was -0.352.

Q: What about the “glycan array binding signal (z-score)” value [21] of the same binder?
A: Its value is -0.33.

Q: And the “glycan array binding signal (z-score)” value [22]?
A: Its value is -0.358.

Q: And the “glycan array binding signal (z-score)” value [23]?
A: Its value is -0.34.

Q: And the “glycan array binding signal (z-score)” value [24]?
A: Its value is -0.357.

Q: What about the “glycan array binding signal (z-score)” value [25] of the same binder?
A: The value was -0.343.

Q: What about the “glycan array binding signal (z-score)” value [26] of the same binder?
A: Its value is -0.357.

Q: What about the “glycan array binding signal (z-score)” value [27] of the same binder?
A: Its value is -0.336.

Q: What about the “glycan array binding signal (z-score)” value [28] of the same binder?
A: Its value is -0.353.

Q: And the “glycan array binding signal (z-score)” value [29]?
A: The value was -0.363.

Q: What about the “glycan array binding signal (z-score)” value [30] of the same binder?
A: Its value is -0.352.

Q: And the “glycan array binding signal (z-score)” value [31]?
A: The value was -0.36.

Q: What about the “glycan array binding signal (z-score)” value (Neu5Ac(a2-3)Gal(b1-4)Glc) of the same binder?
A: The value was 0.124.

Q: What about the “glycan array binding signal (z-score)” value [32] of the same binder?
A: Its value is 3.05.
